#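 Protocol summary: plate cells (96-well), add compound at 5 concentrations, incubate 48 h, interpolate endpoints linearly. Abbreviation: GI50, concentration required for 50% inhibition of growth.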 The source made the active and inactive calls. Cut-off read from the data, not from the text of the source: active = GI50 up to about 1.1 µM and inactive = higher.
# System: NCI-H322M
# Experiment: NCI tumour cell line growth inhibition, 48 h
row,SMILES,GI50
1,O=NN(CCCl)C(=O)NC1CCC(CC2CCC(NC(=O)N(CCCl)N=O)CC2)CC1 (stereo unspecified),inactive: 1.88 µM
2,CN(C)c1ccc(/C=c2\c3cc([N+](=O)[O-])ccc3n3c2cc(-c2ccccc2)[n+]3C)cc1,inactive: 2.89 µM
3,O=C(CSc1nc2ccc([N+](=O)[O-])cc2s1)c1ccc2ccccc2c1,inactive: > 100 µM
4,CCCCN(c1ccccc1)c1ncnc2c1cnn2C,inactive: 56 µM
5,O=C1COc2cc3c(cc2N1)SCCC(=O)N3,inactive: > 100 µM
6,Clc1ccc(Cl)c2[s+]snc12,inactive: > 100 µM
7,O=c1cc(/N=N\c2ccc(Cl)c(Cl)c2)[nH]c(=O)[nH]1,inactive: 12.1 µM
8,C#CCN(N=O)C(=O)NCCCCC(NC(=O)OCc1ccccc1)C(=O)OCc1ccccc1 (stereo unspecified),inactive: > 100 µM
9,CSc1cnc2ccccc2c1Sc1cn(C)c2ccccc2c1=O,inactive: 4.31 µM
10,O=C(c1ccccc1)C(C(=O)c1ccccc1)c1nc2ccccc2sc1=O,inactive: 11.5 µM
11,CC(=O)c1sc2n(C)c(=O)c3ccccc3[n+]2c1C,inactive: > 100 µM
12,Cc1nc(=O)n2c(c1C(=O)Nc1ccc(Cl)cc1)NCCC2,inactive: > 100 µM
13,CC(O)CNC(=O)Nc1c(C(F)(F)F)cc(-c2ccccc2)[nH]c1=O (stereo unspecified),inactive: > 100 µM
14,NCCN/C(=N\c1ccccc1)Nc1ccccc1,inactive: > 100 µM
15,Cn1c(=O)c2c(nc(N3CCOCC3)n2CCCNCC(O)c2ccc(O)c(O)c2)n(C)c1=O (stereo unspecified),inactive: > 100 µM
16,O=C(Sc1c(-c2ccccc2)c(=O)n(-c2ccccc2)c(=S)n1-c1ccccc1)c1ccccc1,inactive: > 100 µM
17,CC(=O)N1c2ccccc2C2=NN=C(N(C)C)SC21 (stereo unspecified),inactive: 2.9 µM
18,COc1ccc(-c2nnc(-c3c(C)n(C)n(-c4ccccc4)c3=O)o2)cc1,inactive: > 100 µM
19,O=C1C(Cl)=C(NCCCN2CCOCC2)C(=O)c2c(O)ccc(O)c21,inactive: 1.9 µM
20,COc1ccc2c(c1)nc1n2C(N)=Nc2ccccc2S1,inactive: 64 µM
21,O=C1CCCc2ccc([N+](=O)[O-])c(O)c21,inactive: 93.3 µM
22,C[C@]12CCC(O)CC1=CC[C@@H]1[C@@H]2CC[C@]2(C)C(O)[C@H](n3ccnc3)C[C@@H]12 (stereo partly specified),inactive: > 100 µM
23,COc1ccc(-c2nnc3c4ccccc4sn23)cc1,inactive: 8.57 µM
24,O=c1[nH]c(=O)n(C2CC(O)C(CO)O2)cc1C#Cc1cc(C(F)(F)F)cc(C(F)(F)F)c1 (stereo unspecified),inactive: > 67.8 µM

row,SMILES,GI50
1,OCC(O)C(O)C(C=NNc1ncnc2ccc(Br)cc12)=NNc1ncnc2ccc(Br)cc12 (stereo unspecified),inactive: 1.34 µM
2,CCC(C(=O)c1ccc(OC)c(OC)c1)N(C(=O)C(F)(F)F)C(C)c1ccccc1 (stereo unspecified),inactive: > 100 µM
3,CSc1n/c(=N\c2ccccc2)sn1-c1ccccc1,inactive: 32.3 µM
4,O=C1C=C(N2CCN(c3ncccn3)CC2)C(=O)c2c(O)ccc(O)c21,inactive: > 100 µM
5,NS(=O)(=O)c1nnc(NC(=O)c2cccc([N+](=O)[O-])c2)s1,inactive: > 100 µM
6,c1ccc2c3c(ccc2c1)CSCc1ccc2ccccc2c1-3,inactive: > 100 µM
7,COc1cc([N+](=O)[O-])ccc1NC1=CC(=O)CCC1,inactive: > 100 µM
8,COc1ccc(C(=O)Nc2ccn(CCOC(=O)c3ccc(OC)cc3)c(=O)n2)cc1,inactive: > 100 µM
9,CCCCCCCCCCCCCCCC1(OC)C[N+](C)(C)CCO1 (stereo unspecified),inactive: 9.25 µM
10,CN1CCN(c2ccc3c(c2)NCC(=O)N3)CC1,inactive: > 100 µM
11,CC1(C)Oc2ccccc2OC1O (stereo unspecified),inactive: > 100 µM
12,OCCOCn1nncc1Cn1ncc2c(SCc3ccccc3)ncnc21,inactive: > 100 µM
13,O=C1/C(=C/c2ccccc2)CN(C(=O)Oc2ccc(Cl)cc2)C/C1=C\c1ccccc1,inactive: 18.5 µM
14,CS(=O)(=O)Nc1ccc(Nc2ccnc3ccc4[nH]ccc4c23)cc1,inactive: 5.92 µM
15,CC(=O)Nc1ccc(-c2nnc(SCC(=O)Nc3cccc([N+](=O)[O-])c3)o2)cc1,inactive: 25.4 µM
16,[O-][N+]1=[N+]([O-])[C@@H](c2ccccc2)[C@H]1c1ccccc1,inactive: 15.2 µM
17,CC1(C)Oc2ccccc2[N+]([O-])=C1c1ccccc1,inactive: > 100 µM
18,CC(=O)Oc1cc2c(n(C)c1=O)CCC2,inactive: > 100 µM
19,O=[N+]([O-])c1cc(C(F)(F)F)cc2n[se]nc12,inactive: 15.9 µM
20,O=C1c2ccccc2C(=O)c2c1ccc1c3ccccc3n(-c3ccccc3)c21,inactive: 27.6 µM
21,O=C1C(NS(=O)(=O)c2ccccc2)=C(n2ccnc2)C(=O)c2ccccc21,inactive: > 100 µM
22,O=C1OC(=O)C2=C1C(c1cccs1)C=C(c1cccnc1)N2c1ccncc1 (stereo unspecified),inactive: 17.3 µM
23,O=c1c2ccccc2sc2nc(O)nn12,inactive: > 100 µM
24,COc1ccc2c(c1)CCc1c(-c3n[nH]c4c3CCc3cc(OC)ccc3-4)n[nH]c1-2,inactive: 54.3 µM

row,SMILES,GI50
1,Cc1ccc(C2COc3cc(O)c(O)cc3C2)cc1 (stereo unspecified),inactive: 57.5 µM
2,COc1cc(C)cc(OC)c1/C=C/C(=O)O,inactive: > 100 µM
3,O=C1c2ccccc2N2Oc3ccccc3C12c1ccccc1 (stereo unspecified),inactive: > 100 µM
4,Cc1cc(N(CCC#N)CCC#N)ccc1/C=N/NC(=O)c1cc(Cl)ccc1O,inactive: > 100 µM
5,CC(=O)OCC1OC(n2c(C)c(/N=N/c3ccc(Cl)cc3)c(C)c(C#N)c2=S)C(OC(C)=O)C(OC(C)=O)C1OC(C)=O (stereo unspecified),inactive: > 100 µM
6,O=C1C[S+]([O-])c2ccccc2N1 (stereo unspecified),inactive: > 100 µM
7,Nc1ncnc2c1N=C(c1ccccc1)CC(c1ccccc1)N2 (stereo unspecified),inactive: > 100 µM
8,Cn1c(=O)c(NC(=O)C(Cl)(Cl)Cl)nc2ccccc21,inactive: > 100 µM
9,O=C(CNc1ccccc1C(=O)O)Nn1cnc2ccc(S(=O)(=O)Nc3ccccc3C(=O)O)cc2c1=O,inactive: > 100 µM
10,CC1(C(=O)O)CCC(C(=O)O)C(C)(C)O1 (stereo unspecified),inactive: > 100 µM
11,C/C(=N\NC(=N)N)C(CN1CCCCC1)C(c1ccccc1)c1c(O)c2ccccc2oc1=O (stereo unspecified),inactive: > 100 µM
12,COc1ccc(C2=Nc3cc(C)c(C)cc3NC(c3ccccc3)C2)cc1 (stereo unspecified),inactive: > 100 µM
13,CSC1(SC)N2Cc3ccccc3N=C2C1(c1ccccc1)c1ccccc1,inactive: 22.9 µM
14,C=C1C(=O)O[C@H]2C1C[C@H](O)[C@@]1(C)OC1CC[C@@]1(C)O[C@H]21 (stereo partly specified),inactive: 41 µM
15,CCN(CC)CCCNc1ncc(C)c2[nH]c3ccncc3c12,inactive: 6 µM
16,N#C/C(C(=O)Nc1ccccc1)=C(/N)N1CCCCC1,inactive: > 100 µM
17,CN1C(=O)C(O)C[C@@H]1c1ccc(F)cc1 (stereo partly specified),inactive: > 100 µM
18,CCNC(=S)N/N=C1\C(=O)Nc2ccc([N+](=O)[O-])cc21,inactive: 37.1 µM
19,COC(=O)[C@]1(C)CCCC2(C)C1CC[C@H]1C=C(C)[C@H]3CCC12C3 (stereo partly specified),inactive: > 100 µM
20,O=C1CCCCC/C1=C\c1ccc(Cl)cc1,inactive: > 100 µM
21,C[N+](C)(C)C1CC([N+](C)(C)C)C2c3ccccc3C21 (stereo unspecified),inactive: > 100 µM
22,N=NCC(=O)OC(COCc1ccccc1)COCc1ccccc1,inactive: > 100 µM
23,COC(=O)C[S+]([O-])c1ccccc1 (stereo unspecified),inactive: 49 µM

# — ChEMBL document CHEMBL1201862, “PubChem BioAssay data set” (2004)
